Results from the supplement of paper PMC9446081.
Hit rate of the full screen: of about 39,000 compounds, about 220 (0.56%) showed activity. The list shows a part of the results.

tested on: Escherichia coli K-12 BW25113; test: relative growth (OD600 normalised to plate interquartile mean) (fraction); higher = less growth inhibition, active = 0.2 or less; settings: 50 µM; LB; incubation time: overnight (16-24 h)
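Further: static incubation at 37 °C against the wild-type strain, values averaged over two biological replicates.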

Row | SMILES | relative growth
1 | C[C@H](CO)N1C[C@H](C)[C@@H](CN(C)S(C)(=O)=O)Oc2ncc(C#CC3(O)CCCC3)cc2C1=O | inactive: 1
2 | C[C@@H]1CN([C@@H](C)CO)C(=O)c2c(c3ccccc3n2C)-c2ccccc2CO[C@@H]1CN(C)C(=O)Nc1cccc(C(F)(F)F)c1 | inactive: 1.03
3 | O=C(C[C@H]1C=C[C@H](NC(=O)Cc2ccccn2)[C@H](CO)O1)NCCCN1CCOCC1 | inactive: 0.998
4 | O=C(C[C@@H]1C[C@@H]2c3cc(NS(=O)(=O)c4ccccc4)ccc3O[C@@H]2[C@H](CO)O1)NCC(F)(F)F | inactive: 0.976
5 | CC(C)(C)NCC(O)c1ccc(O)c(CO)c1 (centres undefined) | inactive: 0.903
6 | Cl.N=C(NN=Cc1ccc(Cl)cc1)NN=Cc1ccc(Cl)cc1 | inactive: 0.609
7 | C[C@H]1CN([C@@H](C)CO)C(=O)c2cc(NC(=O)CCCCCC(=O)Nc3ccccc3N)ccc2O[C@@H]1CN(C)C(=O)Nc1ccc(F)cc1 | inactive: 0.965
8 | C[C@@H]1CN([C@H](C)CO)C(=O)c2cccc(NC(=O)Nc3ccc(C(F)(F)F)cc3)c2O[C@@H]1CN(C)C(=O)NC1CCCCC1 | inactive: 0.886
9 | CC(C)C#Cc1ccc2c(c1)O[C@@H](CN(C)S(=O)(=O)c1cn(C)cn1)[C@H](C)CN([C@H](C)CO)S2(=O)=O | inactive: 1.01
10 | CN(C)CCN1CCNCC1 | inactive: 0.961
11 | C[C@@H]1CN([C@@H](C)CO)C(=O)c2cc(NS(=O)(=O)c3ccc(Cl)cc3)ccc2O[C@@H](C)CCCCO[C@@H]1CN(C)C(=O)Cc1ccccc1 | inactive: 1.01
12 | C[C@H]1CCCCO[C@H](CN(C)Cc2ccc3c(c2)OCO3)[C@@H](C)CN([C@@H](C)CO)C(=O)c2cc(NC(=O)Cc3ccccc3)ccc2O1 | inactive: 0.98
13 | COc1ccc(NC(=O)N(C)C[C@@H]2Oc3c(NC(=O)Nc4ccc(C(F)(F)F)cc4)cccc3C(=O)N([C@@H](C)CO)C[C@@H]2C)cc1 | inactive: 0.883
14 | Cn1nnc2cc(C(=O)NC3CC3)ccc21 | inactive: 1.01
15 | CO[C@@H]1CN(C)C(=O)c2cc(NC(=O)Nc3cccc(F)c3)ccc2OC[C@H](C)N(C(=O)Nc2c(C)noc2C)C[C@H]1C | inactive: 1
16 | C[C@@H]1CN([C@@H](C)CO)C(=O)Cc2cc(NS(=O)(=O)c3ccc(F)cc3)ccc2O[C@H]1CN(C)CC1CC1 | inactive: 1.01
17 | C[C@H](CO)N1C[C@H](C)[C@H](CN(C)Cc2ccc(C(=O)Nc3ccccc3N)cc2)Oc2ccc(NC(=O)Nc3cccc4ccccc34)cc2CC1=O | inactive: 1.02
18 | C[C@H](CO)N1C[C@H](C)[C@H](CN(C)CC2CCCCC2)Oc2ccc(NC(=O)CCN3CCOCC3)cc2CC1=O | inactive: 0.995
19 | Cc1noc(C)c1NC(=O)N1C[C@H](O)COC[C@@H]2O[C@H](CC(=O)N[C@H]3CCN(Cc4ccccc4)C3)CC[C@H]21 | inactive: 1.01
20 | C[C@@H](CO)N1C(=O)[C@@H]2[C@H]3C(=O)OCC=C[C@H]3O[C@]23C=CCN(C(C)(C)C)C(=O)[C@@H]13 | inactive: 1.04

Row | SMILES | relative growth
21 | C[C@H]1CCCCO[C@H](CN(C)S(=O)(=O)c2ccc(Cl)cc2)[C@@H](C)CN([C@@H](C)CO)C(=O)c2cc(NC(=O)Nc3ccc4c(c3)OCO4)ccc2O1 | inactive: 1.06
22 | CN(C)CC#Cc1ccc([C@@H]2[C@@H](CO)N3C(=O)CN(C(=O)c4cccnc4)C[C@H]23)cc1 | inactive: 0.984
23 | C[C@H](O)C#Cc1ccc2c(c1)O[C@H](CN(C)C(=O)c1ccncc1)[C@@H](C)CN([C@@H](C)CO)S2(=O)=O | inactive: 1
24 | C[C@@H]1CN([C@@H](C)CO)C(=O)c2cc(NC(=O)Nc3ccccc3)ccc2O[C@@H](C)CCCCO[C@H]1CN(C)S(=O)(=O)c1ccc(C(F)(F)F)cc1 | inactive: 1.01
25 | COc1ccc(NC(=O)N(C)C[C@@H]2Oc3c(NC(=O)C4CCOCC4)cccc3C(=O)N([C@H](C)CO)C[C@@H]2C)cc1 | inactive: 0.983
26 | CCCCCC=CCC=CCC=CCC=CCCCC(=O)O | inactive: 0.966
27 | C[C@@H]1CCCCO[C@H](CN(C)C(=O)c2ccccc2)[C@@H](C)CN([C@@H](C)CO)C(=O)c2cc(NC(=O)Nc3cccc4ccccc34)ccc2O1 | inactive: 1.04
28 | C[C@H](CO)N1C[C@H](C)[C@H](CN(C)Cc2ccc(-c3ccccc3)cc2)Oc2ccc(NC(=O)Cc3cn(C)c4ccccc34)cc2C1=O | inactive: 1.01
29 | COCC(=O)Nc1ccc2c(c1)C(=O)N(C)[C@H]1CC[C@H](CC(=O)NCc3ccccc3Cl)O[C@@H]1CO2 | inactive: 0.997
30 | C[C@H]1CN([C@@H](C)CO)C(=O)Cc2cc(NC(=O)Nc3ccccc3)ccc2O[C@H]1CN(C)S(C)(=O)=O | inactive: 1.01
31 | CC(C)C[C@H]1NC(=O)N(C)C1=O | inactive: 1
32 | C[C@H](CO)N1C[C@H](C)[C@@H](CN(C)Cc2ccc(C(F)(F)F)cc2)OCCCC[C@H](C)Oc2ccc(NC(=O)CCCN(C)C)cc2C1=O | inactive: 0.937
33 | C[C@@H]1CN([C@H](C)CO)C(=O)c2cccc(NS(=O)(=O)c3cccs3)c2O[C@H]1CN(C)Cc1ccc(Oc2ccccc2)cc1 | inactive: 1.03
34 | C[C@H]1CN([C@@H](C)CO)C(=O)CCCn2nncc2CO[C@H]1CN(C)C(=O)Nc1ccc(N2CCCCC2)cc1 | inactive: 1.02
35 | CCCCCCCC/C=C\CCCCCCCC(=O)O | inactive: 0.899
36 | C[C@H]1CCCCO[C@H](CN(C)Cc2ccc(Cl)c(Cl)c2)[C@@H](C)CN([C@@H](C)CO)C(=O)c2cc(NC(=O)Cc3ccccc3)ccc2O1 | inactive: 0.987
37 | COc1ccc(S(=O)(=O)Nc2cccc3c2O[C@H](CN(C)S(=O)(=O)c2ccc(C)cc2)[C@H](C)CN([C@@H](C)CO)C3=O)cc1 | inactive: 1.03
38 | Oc1cc(O)c2c(c1)O[C@H](c1ccc(O)c(O)c1)[C@H](O)[C@H]2c1c(O)cc(O)c2c1O[C@H](c1ccc(O)c(O)c1)[C@@H](O)C2 | inactive: 0.957
39 | C[C@H]1CN([C@@H](C)CO)C(=O)c2cccc(NS(=O)(=O)c3ccccc3)c2O[C@@H]1CN(C)S(=O)(=O)c1ccc(F)cc1 | inactive: 1.01
